# Measured values published in PubChem BioAssay AID256 (DTP/NCI, 2004).
# Toxic doses and inconclusive results are not listed. A number of entries come with more than one value. The list is limited to them. There may be further records. Values that stand side by side are repeats across runs, samples, wells, individuals or studies.
# Test system: CD2F1 mice, L1210 leukemia ip, survival T/C
# Test: NCI In Vivo Anticancer Drug Screen. Data for tumor model L1210 Leukemia (intraperitoneal) in CD2F1 (CDF1) mice
# Conditions: higher = longer survival
# In short: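 Antitumor effect is scored in animals hosting a serially transplanted tumor. Values compare compound-dosed animals against vehicle-only controls as a simple quotient.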
structure (smiles),measurement,setting,value
CC(=O)c1ccc([NH-])c([NH-])c1.[Cl][Pt+2][Cl],T/C,"endpoint: mean survival time, dose: 80.0 mg/kg/injection, schedule: Q01DX009 (ip), vehicle: distilled water + Tween-80",121 % of control and 162 % of control
COc1cccc2c1C(=O)c1c(O)c3c(c(O)c1C2=O)C[C@@](O)(C(=O)CO)C[C@@H]3OC1CC(N)C(O)C(C)O1 (stereo partly drawn),T/C,"endpoint: mean survival time, dose: 2.0 mg/kg/injection, schedule: Q01DX005 (ip), vehicle: water",86 % of control and 182 % of control
same,T/C,"endpoint: mean survival time, dose: 12.0 mg/kg/injection, schedule: Q01DX001 (ip), vehicle: saline",117 % of control and 166 % of control
O=C(O)c1cc(C(=O)O)cc(S(=O)(=O)O)c1.[NH-]C1CCCCC1[NH-].[Pt+2],T/C,"endpoint: median survival time, dose: 6.25 mg/kg/injection, schedule: Q04DX003 (ip), vehicle: saline",112 % of control and 164 % of control
COc1cccc2c1C(=O)c1c(O)c3c(c(O)c1C2=O)C[C@@](O)(C(O)CO)C[C@@H]3OC1CC(N(Cc2ccccc2)Cc2ccccc2)C(O)C(C)O1 (stereo partly drawn),T/C,"endpoint: median survival time, dose: 100.0 mg/kg/injection, schedule: Q01DX009 (ip), vehicle: water",101 % of control and 160 % of control
O=NNc1cnccn1,T/C,"endpoint: median survival time, dose: 66.67 mg/kg/injection, schedule: Q01DX009 (ip), vehicle: water",121 % of control and 185 % of control
NC1CCCCC1N.O=C([O-])c1ccc(N=Nc2cccc([N+](=O)[O-])c2)cc1O.O=C([O-])c1ccc(N=Nc2cccc([N+](=O)[O-])c2)cc1O.[Pt+4],T/C,"endpoint: median survival time, dose: 25.0 mg/kg/injection, schedule: Q04DX003 (ip), vehicle: saline with Tween-80",91 % of control and 361 % of control
CC1(C)OC2C3COP(=O)(N(CCCl)CCCl)NC(O3)C2O1 (stereo not drawn),T/C,"endpoint: mean survival time, dose: 15.6 mg/kg/injection, schedule: Q01DX001 (ip), vehicle: distilled water + Tween-80",98 % of control and 187 % of control
CCCCCCCCCCCCCCCC(=O)Nc1ccn(C2OC(CO)C(O)C2O)c(=O)n1 (stereo not drawn),T/C,"endpoint: mean survival time, dose: 100.0 mg/kg/injection, schedule: Q01DX009 (ip), vehicle: saline",102 % of control and 173 % of control
Nc1nc(=S)c2[nH]cnc2[nH]1,T/C,"endpoint: mean survival time, dose: 3.0 mg/kg/injection, schedule: Q01DX009 (ip), vehicle: acid diluted with saline","97 % of control, 166 % of control, 172 % of control"
same,T/C,"endpoint: mean survival time, dose: 6.0 mg/kg/injection, schedule: Q01DX009 (ip), vehicle: acid diluted with saline","86 % of control, 114 % of control, 160 % of control"
Nc1cc2[nH]cnc2c(=O)[nH]1,T/C,"endpoint: mean survival time, dose: 200.0 mg/kg/injection, schedule: Q01DX009 (ip), vehicle: suspension in saline",95 % of control and 150 % of control
CNC=O,T/C,"endpoint: mean survival time, dose: 1600.0 mg/kg/injection, schedule: Q01DX009 (ip), vehicle: saline",108 % of control and 150 % of control
COc1ccc(OC)c(NC(=O)OCC(F)(F)F)c1,T/C,"endpoint: mean survival time, dose: 100.0 mg/kg/injection, schedule: Q01DX009 (ip), vehicle: saline with Tween-80",95 % of control and 195 % of control
same,T/C,"endpoint: mean survival time, dose: 400.0 mg/kg/injection, schedule: Q01DX009 (ip), vehicle: saline with Tween-80",97 % of control and 157 % of control
NC1CCCCC1N.O=S(=O)([O-])c1cccc(S(=O)(=O)[O-])c1.[Pt+4],T/C,"endpoint: median survival time, dose: 3.12 mg/kg/injection, schedule: Q04DX003 (ip), vehicle: saline with Tween-80",124 % of control and 162 % of control
same,T/C,"endpoint: median survival time, dose: 50.0 mg/kg/injection, schedule: Q04DX003 (ip), vehicle: saline with Tween-80",112 % of control and 160 % of control
C=CC(CN1CC1)OC(C)=O (stereo not drawn),T/C,"endpoint: mean survival time, dose: 15.0 mg/kg/injection, schedule: Q01DX009 (ip), vehicle: saline",98 % of control and 152 % of control
CS(=O)(=O)OCCN(CCOS(C)(=O)=O)c1ccc(N=Nc2ccccc2C(=O)O)cc1,T/C,"endpoint: mean survival time, dose: 12.5 mg/kg/injection, schedule: Q01DX009 (ip), vehicle: Klucel (hydroxypropylcellulose) (HPC)",100 % of control and 174 % of control
CCC1(OC(=O)CN)C(=O)OCc2c1cc1n(c2=O)Cc2cc3ccccc3nc2-1 (stereo not drawn),T/C,"endpoint: median survival time, dose: 60.0 mg/kg/injection, schedule: Q04DX002 (ip), vehicle: saline",116 % of control and 198 % of control
O=S(=O)(CCl)OCCCl,T/C,"endpoint: median survival time, dose: 25.0 mg/kg/injection, schedule: Q01DX009 (ip), vehicle: saline with Tween-80",111 % of control and 154 % of control
Nc1nc(Cl)c2[nH]cnc2n1,T/C,"endpoint: mean survival time, dose: 100.0 mg/kg/injection, schedule: Q04DX003 (ip), vehicle: saline with Tween-80",100 % of control and 152 % of control
O=C(O)C(O)C(O)C(OC1OC(CO)C(O)C(O)C1O)C(O)CO.O=C(O)C(O)C(O)C(OC1OC(CO)C(O)C(O)C1O)C(O)CO.[NH-]C1CCCCC1[NH-].[Pt+2] (stereo not drawn),T/C,"endpoint: median survival time, dose: 100.0 mg/kg/injection, schedule: Q04DX003 (ip), vehicle: saline",97 % of control and 195 % of control
